Data taken from PubChem BioAssay AID1508624 (National Center for Advancing Translational Sciences (NCATS), 2021).
Hit rate of the full screen: of about 48,000 compounds, about 120 (0.25%) were called active. Not shown: some 4% with an inconclusive outcome. The call rests on the fitted dose curve; in most records, active means well fitted activation curve with a large enough effect; inconclusive means small, poorly fitted or top-dose-only effect, or another doubt; inactive means no such curve, though single readings can be large or run the other way. This is one part of the list.

Assay: Primary qHTS for Identification of Small Molecule Activators of Huntingtin-Antisense Promoter Activity; further: nearly all actives have a fitted effect of over 55% in size
Settings: HEK293 HTT-AS promoter firefly luciferase reporter (activity 0% = vehicle and -100% = no light), 24 h; series mostly up to 57.5 µM; activity change, positive = activation: at the top concentration
Summary of the method: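 Luminescence was read after Dual-Glo reagent and a 10 min room-temperature incubation. Values were normalized to vehicle (0% activity) and zero RLU (-100% activity). Reporter HEK293 cells had been exposed to compounds (up to 57.5 uM final) for 24 h.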

SMILES	activity change, positive = activation
CC(=O)c1ccc(NC(=O)c2ccc3c(c2)N(Cc2cccc(Cl)c2)C(=O)c2ccccc2S3=O)cc1 (stereo unspecified)	inactive: -31.4%
Cc1ccccc1-c1nc(CN2CCC(C(=O)NCc3ccc(F)cc3)CC2)c(C)o1	inactive: -30.9%
CCOC(=O)c1c(C)n(-c2ccccc2)c2ccc(OC(=O)COc3ccc(Cl)cc3)cc12	inactive: -3.17%
Cc1ccc(C(C)C)c(O)c1	inactive: 0.656%
Cc1cc(Nc2ccccc2C)n2nc(Cc3ccc(Cl)cc3)nc2n1	inactive: -20.9%
Cc1c(C(=O)NCc2ccccc2Cl)sc2ncnc(N(C)C3CCCCC3)c12	inactive: -31.3%
COc1ccc(NC(=O)c2cc3c(s2)-c2c(C)cccc2OC3)cc1Cl	inactive: -30%
COc1ccc2nc(N(Cc3cccnc3)C(C)=O)sc2c1	inactive: 9.21%
COc1cc(Cl)c(C)cc1Nc1nc2ccccc2c2nnc(C)n12	inactive: -0.822%
O=C(NCc1cccnc1)c1nn(-c2ccc(Cl)cc2)nc1CO	inactive: -27.3%
COc1ccc(C2CC(=O)N3CN(C4CCCCC4)CSC3=C2C#N)c(OC)c1 (stereo unspecified)	inactive: 6.48%
COC(=O)c1cc2oc(C)cc2n1Cc1ccc(Br)cc1F	inactive: 19.3%
CCC(Oc1ccccc1-c1nnc(-c2ccccc2)o1)C(=O)Nc1ccc(C(C)=O)cc1 (stereo unspecified)	inactive: -5.34%
COC(=O)c1ccc(NC(=O)CSc2ccc(-c3sc(-c4ccccc4)nc3C)nn2)cc1	inactive: -0.409%
CCc1ccc(-n2c(=O)c3cccnc3n2CC(=O)NCc2ccccc2)cc1	inactive: -10.2%
COc1ccccc1C1CC(=O)NC(C)=C1C(=O)OC1CCCCCC1 (stereo unspecified)	inactive: -20.9%
O=C(NC1CC(=O)N(c2ccc(F)cc2)C1)c1ccco1 (stereo unspecified)	inactive: -1.86%
COc1ccc(Nc2ncc3c(n2)CCN(Cc2ccccc2C)C3)c(OC)c1	inactive: 1.42%
O=c1n(Cc2ccccc2Cl)c2ccccc2c2nc(-c3ccccc3)nn12	inactive: 2.89%
Cc1nn2c(=O)cc(COC(=O)c3ccc(NC(=O)COc4ccc(C)c(C)c4)cc3)nc2s1	inactive: 1.72%
COC(=O)C(C)Sc1ccc2nnc(CCNS(=O)(=O)c3ccc(C)cc3)n2n1 (stereo unspecified)	inactive: -4.27%
Cc1ncc(CO)c2c1Oc1nc(-c3ccccc3Cl)nc(SCc3ccccc3F)c1C2	inactive: -19.3%
COCCCNC(=O)Cn1cnc2sc(C)c(S(=O)(=O)N3CCC(C)CC3)c2c1=O	inactive: 15%
CC(C)NC(=O)c1ccc(Cn2c(SCC(N)=O)nc3ccccc3c2=O)cc1	inactive: -11.5%
CCOc1ccc(C2CC(=O)Nc3nc(SCc4ccccc4C)[nH]c(=O)c32)cc1OC (stereo unspecified)	inactive: -44.1%
Cc1ccc(CCNC(=O)c2ccc3nc(N4CCC(C)CC4)sc3c2)cc1	inactive: -73.1%

SMILES	activity change, positive = activation
COc1ccc(-c2nc3sc(CCNC(=O)c4ccco4)c(C)n3n2)cc1	inactive: 23.9%
Cn1cc(CN(C(=O)Nc2ccccc2)C2CCCCC2)c2ccccc21	inactive: -41.4%
COc1cc2c(cc1OC)CN(C(=O)Nc1ccccc1)CC2	inactive: -20.2%
CN(C)c1ccc(CNS(=O)(=O)c2ccc(-c3cc(C(F)(F)F)on3)s2)cc1	inactive: -21%
Cc1cccc(N2CCN(S(=O)(=O)c3c(C)nc4scc(C)n4c3=O)CC2)c1C	inactive: -26.3%
CCCCn1c(=O)c2oc3ccccc3c2n(CC(=O)Nc2ccc(CC)cc2)c1=O	inactive: -3.13%
CCn1cc2nc(SCc3cc(C)ccc3C)n(CCc3ccccc3)c(=O)c2n1	inactive: 7.07%
CCCCn1c(=N)n(CCCOc2ccc(F)cc2)c2ccccc21	inactive: -25.4%
COC(=O)c1c(C)oc2ccc(N(C(=O)c3ccncc3)S(=O)(=O)c3ccc(OC)cc3)cc12	inactive: -68.4%
O=C(Nc1cccc(C(F)(F)F)c1)c1ccc2c(c1)nnn2C1CCCC1	inactive: -18.3%
CCc1ccc(-n2c(=O)c3c4c(sc3n(Cc3ccccc3C#N)c2=O)CCC4)cc1	inactive: -0.373%
COc1ccc(S(=O)(=O)NCCc2nnc3ccc(SCC(=O)Nc4ccccc4C)nn23)cc1	inactive: -21.2%
Cc1nc(S(=O)(=O)N2CCN(c3cccc(Cl)c3)CC2)cn1C	inactive: -7.38%
O=C(NCCc1ccc(Cl)cc1)c1ccc2nc(CCc3ccccc3)oc2c1	inactive: 15.7%
COc1cc(OC)cc(-c2nnc(SCC(=O)c3ccc([N+](=O)[O-])cc3)o2)c1	inactive: 6.26%
CC(C)Cn1c(CN2CCN(c3cccc(Cl)c3)CC2)nc2c1c(=O)[nH]c(=O)n2C	inactive: -39.3%
O=C(CSc1nncn2c1cc1occc12)Nc1ccc(F)c(Cl)c1	inactive: -13.9%
COc1ccc(N(CC(=O)NCCc2ccc(C)cc2)S(=O)(=O)c2c(C)nn(C)c2C)cc1	inactive: -23.8%
COc1cc(Nc2nn(-c3ccc(OC(F)(F)F)cc3)nc2C(C)=O)cc(OC)c1	inactive: -2.65%
Cn1c(=O)c2c(nc(N3CCOCC3)n2Cc2ccccc2Cl)n(C)c1=O	inactive: -9.7%
COCCCNC(=O)CCCn1c(=O)c2ccccc2n(CC(=O)Nc2ccc(C)cc2Cl)c1=O	inactive: -14.2%
CC(C)Cn1c(-c2ccccc2Cl)nc2ccccc21	inactive: -0.621%
O=C(NCCc1ccc(Cl)cc1)c1nnc(Cc2ccc(Cl)cc2Cl)o1	inactive: -13%
CCOc1ccc(-c2c(C)nn3c(C)c(C(=O)NCCN(C)C)cnc23)cc1OCC	inactive: -6.45%
COc1ccc(N(CC(C)C)S(=O)(=O)c2nnc(NC(=O)c3ccco3)s2)cc1	inactive: -38%
Cc1c(Cl)cccc1NC(=O)Cn1c(=O)cc(C)c2c(C)nn(-c3cccc(F)c3)c21	inactive: -8.59%

SMILES	activity change, positive = activation
COc1ccc(NC(=O)c2cc(-c3ccc(F)cc3)no2)cc1OC	inactive: -6.12%
COc1ccccc1Cc1nc2ccccc2nc1SCC(=O)Nc1c(C)cccc1C	inactive: -8.52%
O=C(OCC(O)CO)c1ccccc1Nc1ccnc2c(C(F)(F)F)cccc12 (stereo unspecified)	inactive: -25.2%
Cc1cc(NC(=O)c2ccco2)cc(-c2nc3ccccc3o2)c1O	inactive: 2.51%
CCCNC(=O)Cn1nc(-c2ccc(C)cc2)c2cnc3ccc(CC)cc3c21	inactive: -0.267%
CCN(C(=O)CCS(=O)(=O)c1cc2c(cc1C)NC(=O)CO2)c1cccc(C)c1	inactive: -14.3%
CCn1c(C)c(C)c2cc(C(=O)N3CCN(c4ccccc4)CC3)ccc21	inactive: -11.4%
CN(C)CCN(Cc1ccccc1)S(=O)(=O)c1csc(C(N)=O)c1	inactive: 9.3%
CCCCc1nn2c(=O)cc(COC(=O)c3ccc4c(c3)OCO4)nc2s1	inactive: 5.61%
CCOC(=O)c1cc(-c2ccc(OC)cc2)n(CCC(=O)Nc2cccc(C)c2C)c1C	inactive: -20.5%
O=C(CCCn1c(=O)[nH]c2ccc(Br)cc2c1=O)N1CCN(c2cccc(Cl)c2)CC1	inactive: -62.5%
COc1cc(OC)cc(-n2c(=O)c3ccccc3n(Cc3ccccc3C#N)c2=O)c1	inactive: 3.85%
COC(=O)c1ccccc1NC(=O)Cn1nnc(-c2ccc(OC)cc2)n1	inactive: -25.9%
CCC(=O)Nc1cc(-c2cn3cccnc3n2)ccc1OC	inactive: -1.06%
CC1=C(C(=O)Nc2ccccc2)C(C(C)C)n2nc(SCc3ccccc3C)nc2N1 (stereo unspecified)	inactive: 3.95%
OCC(O)C(O)C(O)CO (stereo unspecified)	inactive: -15.1%
COc1cc(NC(=O)c2ccc(-c3nc(CSc4ccccc4)c(C)o3)cc2)cc(OC)c1	inactive: -57.9%
CCc1ccccc1N(C)C(=O)c1nn(-c2ccc(OC)cc2)c(=O)c2c1c1ccccc1n2C	inactive: -3.5%
CCOc1ccc(CNc2cc(C)nc3nc(-c4cccc(C)c4)nn23)cc1OC	inactive: 3.87%
Cc1cccc(NC(=O)c2ccc3oc(=O)c(S(=O)(=O)c4ccc(F)cc4)cc3c2)c1C	inactive: -3.38%
CC1CCc2c(sc3nnn(Cc4ccccc4Cl)c(=O)c23)C1 (stereo unspecified)	inactive: -9.64%
CCOc1ccc(S(=O)(=O)c2cc3cccc(OCC)c3oc2=O)cc1	inactive: 6.25%
CCOc1ccccc1Oc1ncnc2c1oc1ccccc12	inactive: -19.6%
CCOc1ccccc1CNCc1c(C(=O)O)n(Cc2ccccc2)c2cc(OC)ccc12	inactive: -10.4%
CCOc1ccccc1C1C(C(=O)Nc2ccccc2)=C(C)Nc2nc(-c3ccccc3)nn21 (stereo unspecified)	inactive: -17.7%
COc1ccccc1OCc1nc2ccccc2n1Cc1ccccc1	inactive: 0%

SMILES	activity change, positive = activation
CCOc1ccccc1NCc1nnc2n1CCCCC2	inactive: -6.38%
CC(C)NC(=O)CSc1cn(CC(=O)N2CCCCCC2)c2ccccc12	inactive: -19.4%
Cc1ccc(-c2nnc3c4ccccc4c(-c4ccccc4)nn23)cc1	inactive: -12%
Cc1ccc(NCc2cc3cc4c(cc3n(CC(=O)Nc3ccc(C)cc3)c2=O)OCCO4)cc1	inactive: 8.24%
COc1ccc(N2CCN(C(=O)c3cnc(N4CCOCC4)c4ccccc34)CC2)cc1	inactive: -26.7%
CCc1ccc(-c2nc(CS(=O)CC(=O)NCc3ccc(F)cc3)c(C)o2)cc1 (stereo unspecified)	inactive: -44.2%
Cc1ccc(Cl)cc1NC(=O)CN1C(=O)c2ccccc2Sc2ncccc21	inactive: -19.7%
Cc1ccc(CNS(=O)(=O)c2c(C)nc3sc(C)cn3c2=O)cc1	inactive: -19.2%
COc1ccc(CCNC(=O)c2ccc3c(c2)nc2n3CCCCC2)cc1OC	inactive: -26.3%
CCCn1cnc2cc(NC(=O)c3cc(OC)c(OC)c(OC)c3)ccc21	inactive: -4.74%
Cc1cccc(N2CCN(Cc3nnc(-c4cccc(Br)c4)o3)CC2)c1C	inactive: 0.781%
CC(=O)c1ccc(NC(=O)c2nc(-c3ccccc3)n(-c3ccc(C)cc3)n2)cc1	inactive: -16.8%
CCCOC(=O)c1cccc(NC(=O)CSc2nnc3cc(C)c4ccccc4n23)c1	inactive: -18.1%
COc1ccccc1NC(=O)Cn1c(=O)oc2cc(S(=O)(=O)NCc3ccccc3)ccc21	inactive: -20.2%
O=C(NCc1cccc(Cl)c1)C1CCCN(c2nn3cc(-c4ccc(F)cc4)nc3s2)C1 (stereo unspecified)	inactive: -70.2%
Cc1ccc(Cn2c(=O)n(Cc3ccc(C(=O)NC4CCN(Cc5ccccc5)CC4)cc3)c(=O)c3ccccc32)cc1	inactive: -16.9%
CCc1cccc(NC(=O)C2CCCN2S(=O)(=O)c2ccc3nc(-c4ccccc4)[nH]c3c2)c1 (stereo unspecified)	inactive: -27.5%
CC(=O)c1ccc(NC(=O)CCn2cccn2)cc1	inactive: -0.505%
O=c1c(-c2ccccc2)c1-c1ccccc1	inactive: -85.9%
CN1C(=O)Cc2cc(S(=O)(=O)NCc3ccccc3Cl)ccc21	inactive: -9.25%
O=C(c1ccc(Br)cc1)N(Cc1ccco1)c1ccccn1	inactive: 6.29%
Cc1ccc(-n2c(C)nc3c(cnn3-c3ccccc3)c2=O)cc1	inactive: -9.79%
CCc1ccc(CNC(=O)c2cccc(-n3c(C)nc4cccnc43)c2)cc1	inactive: -28.3%
